Experimental data as given in PubChem BioAssay AID1645887 (National Center for Advancing Translational Sciences (NCATS), 2021).
Several values for one entry are separate records, joined by “and”; a condition that tells them apart may be missing. Equal values may be shown once. Screen size: about 16,000 compounds; about 40 (0.2%) were called active. Roughly 1% stayed inconclusive and do not appear here. Calls follow the shape of the dose curve; as a rule, active = well fitted activation curve with a large enough effect; inconclusive = small, poorly fitted or top-dose-only effect, or another doubt; inactive = no such curve, though single readings can be large or run the other way. The list shows a part of the results.

The compounds below were run against Rap guanine nucleotide exchange factor 4 (Homo sapiens) (UniProt Q8WZA2) (assay: Validation qHTS for agonist of cAMP-regulated guanine nucleotide exchange factor 4 (EPAC2)). Conditions: EPAC2 Rap1B BODIPY-GDP exchange, fluorescence; activation: stronger effect = higher value.
Sequence of UniProt Q8WZA2 (Q8WZA2 whole entry, looked up): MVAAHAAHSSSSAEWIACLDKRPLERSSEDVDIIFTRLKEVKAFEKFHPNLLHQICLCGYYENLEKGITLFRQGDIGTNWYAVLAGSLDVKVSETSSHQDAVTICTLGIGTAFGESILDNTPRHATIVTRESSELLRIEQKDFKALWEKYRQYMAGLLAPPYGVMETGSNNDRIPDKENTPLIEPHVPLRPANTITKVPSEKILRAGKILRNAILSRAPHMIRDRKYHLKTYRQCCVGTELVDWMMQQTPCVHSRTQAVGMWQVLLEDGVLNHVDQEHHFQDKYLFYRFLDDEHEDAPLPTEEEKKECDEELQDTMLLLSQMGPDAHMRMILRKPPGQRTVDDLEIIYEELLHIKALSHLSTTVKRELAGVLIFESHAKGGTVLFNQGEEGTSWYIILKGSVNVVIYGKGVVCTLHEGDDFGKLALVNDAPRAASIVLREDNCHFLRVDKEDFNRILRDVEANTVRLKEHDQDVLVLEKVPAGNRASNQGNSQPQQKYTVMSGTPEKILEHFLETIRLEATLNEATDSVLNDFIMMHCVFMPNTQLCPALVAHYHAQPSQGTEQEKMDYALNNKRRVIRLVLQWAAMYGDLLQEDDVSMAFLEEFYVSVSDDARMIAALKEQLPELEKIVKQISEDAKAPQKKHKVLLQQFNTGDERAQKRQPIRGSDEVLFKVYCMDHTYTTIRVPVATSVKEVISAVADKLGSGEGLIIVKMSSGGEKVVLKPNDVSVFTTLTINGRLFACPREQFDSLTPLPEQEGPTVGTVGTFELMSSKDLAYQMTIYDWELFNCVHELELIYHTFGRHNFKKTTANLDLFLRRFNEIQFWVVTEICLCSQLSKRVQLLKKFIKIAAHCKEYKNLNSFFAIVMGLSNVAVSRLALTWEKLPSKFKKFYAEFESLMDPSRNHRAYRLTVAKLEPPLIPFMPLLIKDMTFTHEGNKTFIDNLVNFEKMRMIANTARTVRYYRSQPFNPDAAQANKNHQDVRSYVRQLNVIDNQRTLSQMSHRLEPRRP
Method in brief: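 Fluorescent exchange assay: 100 nM EPAC2 with 250 nM RAP1B-BODIPY-GDP and 50 uM GDP; compound added, 5 min at room temperature, then read (ex 480/em 540 nm) every 5 min for 30 min. Normalized to 6.5 mM cAMP agonist control.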
% is scaled to controls: 0 for no effect and ±100 for the full control effect.
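Also: exchange makes BODIPY-GDP fluorescence drop when released from Rap1B; series mostly up to about 150 µM.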

activation, inactive:
COc1ccc2c(c1)[C@@]1(C)CCC[C@](C)(CO)C1CC2 (stereo partly specified) -3.66%, Cc1nc2cnc(N3CCNCC3)nc2n(-c2ccccc2)c1=O -2.15%, O=P(O)(O)OC[C@H](O)CO -1.41%, CN(C)c1nc(N(C)C)nc(N(C)C)n1 -3.41% and 3.56% and 1.66%, COc1ccccc1-c1cncnc1NCc1cccs1 -4.28%, CC(C)[C@H](O)CC[C@@H](C)C1CC[C@H]2C3CC=C4C[C@@H](O)CC[C@]4(C)C3CC[C@]12C (stereo partly specified) 6.71% and 2.83%, Cc1ccc(O)cc1 -8.71% and -8.05% and -0.405%, Cc1ccc(-c2ccnc(-n3ncc(C(=O)N(C)CC4CCCN(C)C4)c3C)n2)o1 (stereo unspecified) -14%, c1cnc2[nH]ccc2c1 -27.2%, CC(C)(C)CC(C)(C)c1ccc(OCCO)cc1 -32%, CC(=O)OCC(=O)[C@@]1(O)CCC2C3CCC4=CC(=O)CC[C@]4(C)C3C(=O)C[C@]21C (stereo partly specified) 6.23%, CCC1(C2CCN(C(=O)c3ccc(C)c(C)c3)CC2)NC(=O)N(CCc2scnc2C)C1=O (stereo unspecified) -15.6%, COc1ccc2ccccc2c1CN1CCC2(CCC(CNC(=O)c3ccccc3)O2)CC1 (stereo unspecified) -13.6%, COc1cccc(CN2CCCC(c3nc(-c4ccncc4)ncc3-c3ccccc3)C2)c1O (stereo unspecified) -18.3%, O=S1(=O)CCOC[C@H](CC2CCCCC2)N1Cc1ccccc1 -19.2%, NC(=O)C(c1ccccc1)(c1ccccc1)[C@@H]1CCN(CCc2ccc3c(c2)CCO3)C1 -10.7%, Cc1ccc2nc(SCC(=O)N3CCOc4ccc(CN5C[C@@H](C)O[C@@H](C)C5)cc4C3)[nH]c2c1 -32.5%, NC1(C(=O)O)C[C@H](C(=O)O)[C@H](C(=O)O)C1 (stereo partly specified) -14.2% and -5.59% and -21.8%, Clc1ccc(/C=C/c2ccc3ccccc3n2)cc1Cl -23%, CCCNCC(O)COc1ccccc1C(=O)CCc1ccccc1 (stereo unspecified) -4.83% [middle of 4 runs], CCNC(=O)c1sc2ncnc(NCCCN3CCOCC3)c2c1C -3.8%, Cc1cc(C(=O)NCc2nc(-c3ccccc3NC(=O)C3CCCO3)oc2C)nc(C)n1 (stereo unspecified) -11.1%, O=C(O)[C@@H](O)[C@H](O)[C@H](O)[C@@H](O)C(=O)O (tested in a mixture with another compound) 6.14%, COc1cc([C@@H]2c3cc4c(cc3[C@@H](O[C@@H]3O[C@@H]5CO[C@@H](C)O[C@H]5[C@H](O)[C@H]3O)[C@H]3COC(=O)[C@H]23)OCO4)cc(OC)c1O 12.4%, COc1ccc2[nH]c(CCc3nc4c(OC)c(OC)ccc4[nH]3)nc2c1OC -12.9%, COc1ncc2nc(-c3ccc(F)cc3)c(=O)n(Cc3cccs3)c2n1 -6.06%, N#Cc1ccc(CN2CC3(CCN(C(=O)c4ccncc4)CC3)C2)cc1 4.23%, O=C([C@@H]1CC=C[C@@H]2CCN(C3CC3)C(=O)[C@@H]21)N1CCN(c2ccccc2)CC1 -5.35%, C[C@@H]1[C@H](c2ccccc2)OCCS(=O)(=O)N1Cc1cccc(Cl)c1 -19.8%, O=C(Nc1ccccc1)Nc1ccccc1 -4.47%, O=C(Nc1ccccc1)N1CC[C@@]2(CCCN(C(=O)c3csnn3)C2)C1 -17.9%, Cc1cnc(SCC2CCCO2)nc1C1CCCN(C(=O)C2=NNC(=O)CC2)C1 (stereo unspecified) -5.49%, O=C(Nc1cccc2c(=O)cc(-c3nn[nH]n3)oc12)c1ccc(OCCCCc2ccccc2)cc1 -22.5%, CSc1ncccc1C(=O)NCC1Cc2cc(-c3cnccn3)ccc2O1 (stereo unspecified) 2.41%, COc1cc(/C=C(\C#N)C(=O)Nc2nnc(C(F)(F)F)s2)ccc1OCc1ccc(C(F)(F)F)cc1C(F)(F)F -81.4%, COc1ccccc1OCC(O)CN1CCN(CC(=O)Nc2c(C)cccc2C)CC1 (stereo unspecified) -16.1% and -22.2%, O=C(c1cc(C(F)(F)F)cc(C(F)(F)F)c1)N1CCC[C@@]2(CCN(Cc3nccs3)C2)C1 -39.8%, O=[N+]([O-])c1cccc2cn[nH]c12 -25.1% and -8% and -27.3%, CCNc1ncc2nc(-c3cc(F)cc(F)c3)c(=O)n(CCc3ccccc3)c2n1 9.1%, CCCCC/C=C\C/C=C\CCCCCCCC(=O)NC(C)c1ccccc1 (stereo unspecified) 10.3%, COc1ccc(CN2CCC(=O)N([C@H](CO)c3ccccc3)CC2)cc1 -5.16%, COc1ccccc1CNc1cc(-c2cccnc2)ncn1 -4.02%, Cc1nc(C)n(CC(=O)N2CCOc3ccc(CN4CCN(C)C[C@@H]4c4ccccc4)cc3C2)n1 -9.99%, C=CCN([C@@H](CC(C)C)C(=O)OC)S(=O)(=O)N(CC=C)[C@@H](CC(C)C)C(=O)OC -31.6%, FC(F)(F)c1ccccc1-c1nc(N2CCNCC2)c2ccccc2n1 -18.1%, N=C(N)c1ccc2cc(OC(=O)c3ccc(N=C(N)N)cc3)ccc2c1 -28.6% and 5.76%, O=C(O)CC/C=C\CC[C@H]1[C@@H](N2CCCCC2)[C@@H](O)C[C@@H]1OCc1ccc(-c2ccccc2)cc1 -12.5%, CCCC(NC(C)C(=O)N1C(C(=O)O)CC2CCCCC21)C(=O)OCC (stereo unspecified) -23.3%, Cc1cccc(CNc2ccnc(-c3cccc(C#N)c3)n2)c1 -1.68%, O=C(NCc1cccnc1)c1cnn(-c2ncc3c(n2)-c2ccccc2CCC3)c1C1CC1 -3.25%, COc1cc(=O)n2c(c1C(=O)N(C)Cc1nonc1C)CCN(Cc1cc(C)c(C)cc1C)CC2 -20.9%
